Results are given in words; binding and its absence hold for the method and conditions named. In cells and extracts the contact can be indirect. Some binding calls cover weakened binding; strength is not graded here. For some assays here: Sequences can lack the tags named with a protein. Each block holds one molecule with its values, some of them ahead of it.
How the values were obtained:
[1] = molecular target: T1, Ebp1, endogenous approximately 50 kDa protein in AU565 cells (human (endogenous in AU565)) (UniProt Q9UQ80); assay: co-IP; AU565 cell lysates in RIPA buffer, endogenous proteins; immunoprecipitated with anti-ErbB-3 (C-17), anti-ErbB-2 or anti-GST-EBP1 antibody, rabbit IgG as control; immunoblotting
T1 sequence: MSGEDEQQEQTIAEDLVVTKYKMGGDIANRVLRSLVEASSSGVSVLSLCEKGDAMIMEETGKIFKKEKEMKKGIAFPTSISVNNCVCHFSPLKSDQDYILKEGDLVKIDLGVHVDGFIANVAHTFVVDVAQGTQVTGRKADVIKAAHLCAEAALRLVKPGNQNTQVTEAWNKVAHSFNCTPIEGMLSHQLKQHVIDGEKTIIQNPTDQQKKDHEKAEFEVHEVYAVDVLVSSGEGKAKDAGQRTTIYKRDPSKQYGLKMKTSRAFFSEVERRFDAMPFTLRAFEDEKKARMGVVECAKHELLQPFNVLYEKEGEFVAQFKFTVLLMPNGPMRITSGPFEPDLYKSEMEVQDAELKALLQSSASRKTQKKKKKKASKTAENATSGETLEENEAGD

Sequences of proteins named here, by UniProt entry; tags and fusion partners are left off. Residues count along the entry.
UniProt P21860, residues 20-1342: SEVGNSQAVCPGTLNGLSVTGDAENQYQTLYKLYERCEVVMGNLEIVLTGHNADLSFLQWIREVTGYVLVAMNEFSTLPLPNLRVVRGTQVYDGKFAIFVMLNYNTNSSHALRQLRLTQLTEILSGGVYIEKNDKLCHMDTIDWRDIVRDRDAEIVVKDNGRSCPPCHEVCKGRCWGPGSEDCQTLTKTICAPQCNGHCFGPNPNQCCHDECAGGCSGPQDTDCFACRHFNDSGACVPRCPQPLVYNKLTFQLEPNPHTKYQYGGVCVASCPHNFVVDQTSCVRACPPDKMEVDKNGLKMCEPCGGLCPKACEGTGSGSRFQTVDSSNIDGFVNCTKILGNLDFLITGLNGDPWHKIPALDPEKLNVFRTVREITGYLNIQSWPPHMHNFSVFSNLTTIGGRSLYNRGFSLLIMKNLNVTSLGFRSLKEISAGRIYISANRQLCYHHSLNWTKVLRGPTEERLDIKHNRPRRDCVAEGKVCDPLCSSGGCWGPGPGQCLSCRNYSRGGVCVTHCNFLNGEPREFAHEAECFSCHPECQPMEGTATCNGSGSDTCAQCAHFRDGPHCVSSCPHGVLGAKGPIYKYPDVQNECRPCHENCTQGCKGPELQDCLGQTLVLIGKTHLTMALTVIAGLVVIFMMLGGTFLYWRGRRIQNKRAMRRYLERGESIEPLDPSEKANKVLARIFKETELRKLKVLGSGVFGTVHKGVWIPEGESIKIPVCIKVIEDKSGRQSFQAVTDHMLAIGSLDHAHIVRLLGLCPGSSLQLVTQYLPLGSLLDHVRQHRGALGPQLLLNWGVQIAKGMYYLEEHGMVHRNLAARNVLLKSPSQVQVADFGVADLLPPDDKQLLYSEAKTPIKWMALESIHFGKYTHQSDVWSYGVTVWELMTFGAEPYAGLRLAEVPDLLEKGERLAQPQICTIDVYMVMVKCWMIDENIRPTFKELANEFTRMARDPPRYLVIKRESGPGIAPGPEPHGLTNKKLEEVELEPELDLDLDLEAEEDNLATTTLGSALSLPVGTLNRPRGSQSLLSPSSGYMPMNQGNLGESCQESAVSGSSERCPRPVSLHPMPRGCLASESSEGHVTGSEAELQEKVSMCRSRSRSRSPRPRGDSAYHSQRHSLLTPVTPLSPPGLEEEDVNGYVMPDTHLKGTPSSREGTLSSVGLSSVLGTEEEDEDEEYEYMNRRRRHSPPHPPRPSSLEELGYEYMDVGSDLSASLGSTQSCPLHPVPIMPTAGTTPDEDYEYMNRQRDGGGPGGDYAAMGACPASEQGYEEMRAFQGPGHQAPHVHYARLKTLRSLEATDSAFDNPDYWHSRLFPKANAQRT

[2] = molecular target: ErbB-2, endogenous in AU565 cells (human (endogenous in AU565)) (UniProt P04626); assay: as above
[3] = molecular target: ErbB-3, endogenous in AU565 cells (human (endogenous in AU565)) (UniProt P21860); assay: as above
[4] = molecular target: Human EGFR expressed in NIH 3T3 cells (human) (UniProt P00533); assay: co-IP; NIH3T3 cells overexpressing human EGFR, transiently transfected with Flag-tagged Ebp1, 48 h; lysates immunoprecipitated with rabbit anti-EGFR antibody or rabbit IgG; blotted with anti-Flag (M2) and anti-EGFR
[5] = molecular target: T2, 35S-labelled in vitro translation product of pBK/Ebp1 (amino acids 1-373 of Ebp1) (human) (UniProt Q9UQ80); assay: pull-down; competition: ErbB-3 peptide (aa 665-690) in 75- to 1000-fold excess against GST-ErbB-3 (aa 665-690) for in vitro translated 35S-Ebp1; the peptide as competitor; only the binder purified
T2 sequence (chain, 35S-labelled): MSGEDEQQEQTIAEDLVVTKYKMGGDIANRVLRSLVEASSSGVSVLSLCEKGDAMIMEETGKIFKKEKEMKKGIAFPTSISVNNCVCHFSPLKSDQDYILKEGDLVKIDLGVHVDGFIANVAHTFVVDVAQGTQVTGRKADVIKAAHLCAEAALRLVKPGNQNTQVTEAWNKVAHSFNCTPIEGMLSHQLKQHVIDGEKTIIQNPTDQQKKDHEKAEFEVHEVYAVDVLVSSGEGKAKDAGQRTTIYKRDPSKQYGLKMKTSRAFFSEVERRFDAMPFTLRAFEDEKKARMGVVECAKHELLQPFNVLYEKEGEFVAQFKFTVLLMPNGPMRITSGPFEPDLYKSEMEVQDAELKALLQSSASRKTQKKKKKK

binding [1]: binds
Molecule: ErbB-3, endogenous in AU565 cells (from UniProt P21860 20-1342) (receptor)

binding [2]: no binding
binding [3]: binds
B1: Ebp1, endogenous approximately 50 kDa protein in AU565 cells (natural protein, human (endogenous in AU565), UniProt Q9UQ80 1-394, looked up)
chain: MSGEDEQQEQTIAEDLVVTKYKMGGDIANRVLRSLVEASSSGVSVLSLCEKGDAMIMEETGKIFKKEKEMKKGIAFPTSISVNNCVCHFSPLKSDQDYILKEGDLVKIDLGVHVDGFIANVAHTFVVDVAQGTQVTGRKADVIKAAHLCAEAALRLVKPGNQNTQVTEAWNKVAHSFNCTPIEGMLSHQLKQHVIDGEKTIIQNPTDQQKKDHEKAEFEVHEVYAVDVLVSSGEGKAKDAGQRTTIYKRDPSKQYGLKMKTSRAFFSEVERRFDAMPFTLRAFEDEKKARMGVVECAKHELLQPFNVLYEKEGEFVAQFKFTVLLMPNGPMRITSGPFEPDLYKSEMEVQDAELKALLQSSASRKTQKKKKKKASKTAENATSGETLEENEAGD
notes: Ebp1 (PA2G4), endogenous full-length protein of approximately 50 kDa in the human AU565 mammary carcinoma cell line; predicted protein of 394 amino acid residues; also called PA2G4; source: endogenous, AU565 lysate

binding [4]: no binding
B2: Flag-tagged Ebp1 (protein, UniProt Q9UQ80 1-394)
chain: MSGEDEQQEQTIAEDLVVTKYKMGGDIANRVLRSLVEASSSGVSVLSLCEKGDAMIMEETGKIFKKEKEMKKGIAFPTSISVNNCVCHFSPLKSDQDYILKEGDLVKIDLGVHVDGFIANVAHTFVVDVAQGTQVTGRKADVIKAAHLCAEAALRLVKPGNQNTQVTEAWNKVAHSFNCTPIEGMLSHQLKQHVIDGEKTIIQNPTDQQKKDHEKAEFEVHEVYAVDVLVSSGEGKAKDAGQRTTIYKRDPSKQYGLKMKTSRAFFSEVERRFDAMPFTLRAFEDEKKARMGVVECAKHELLQPFNVLYEKEGEFVAQFKFTVLLMPNGPMRITSGPFEPDLYKSEMEVQDAELKALLQSSASRKTQKKKKKKASKTAENATSGETLEENEAGD

binding [5]: binds
B3: ErbB-3 competing peptide (aa 665-690) (peptide)
peptide: RGRRIQNKRAMRRYLERGESIEPLDP
